These are yes or no findings as the source states them, for the method shown. Some binding calls cover weakened binding; strength is not graded here. Sequences can lack the tags named with a protein.

Amino acid sequences for entries named in this document (tags omitted).
UniProt A4GSN8: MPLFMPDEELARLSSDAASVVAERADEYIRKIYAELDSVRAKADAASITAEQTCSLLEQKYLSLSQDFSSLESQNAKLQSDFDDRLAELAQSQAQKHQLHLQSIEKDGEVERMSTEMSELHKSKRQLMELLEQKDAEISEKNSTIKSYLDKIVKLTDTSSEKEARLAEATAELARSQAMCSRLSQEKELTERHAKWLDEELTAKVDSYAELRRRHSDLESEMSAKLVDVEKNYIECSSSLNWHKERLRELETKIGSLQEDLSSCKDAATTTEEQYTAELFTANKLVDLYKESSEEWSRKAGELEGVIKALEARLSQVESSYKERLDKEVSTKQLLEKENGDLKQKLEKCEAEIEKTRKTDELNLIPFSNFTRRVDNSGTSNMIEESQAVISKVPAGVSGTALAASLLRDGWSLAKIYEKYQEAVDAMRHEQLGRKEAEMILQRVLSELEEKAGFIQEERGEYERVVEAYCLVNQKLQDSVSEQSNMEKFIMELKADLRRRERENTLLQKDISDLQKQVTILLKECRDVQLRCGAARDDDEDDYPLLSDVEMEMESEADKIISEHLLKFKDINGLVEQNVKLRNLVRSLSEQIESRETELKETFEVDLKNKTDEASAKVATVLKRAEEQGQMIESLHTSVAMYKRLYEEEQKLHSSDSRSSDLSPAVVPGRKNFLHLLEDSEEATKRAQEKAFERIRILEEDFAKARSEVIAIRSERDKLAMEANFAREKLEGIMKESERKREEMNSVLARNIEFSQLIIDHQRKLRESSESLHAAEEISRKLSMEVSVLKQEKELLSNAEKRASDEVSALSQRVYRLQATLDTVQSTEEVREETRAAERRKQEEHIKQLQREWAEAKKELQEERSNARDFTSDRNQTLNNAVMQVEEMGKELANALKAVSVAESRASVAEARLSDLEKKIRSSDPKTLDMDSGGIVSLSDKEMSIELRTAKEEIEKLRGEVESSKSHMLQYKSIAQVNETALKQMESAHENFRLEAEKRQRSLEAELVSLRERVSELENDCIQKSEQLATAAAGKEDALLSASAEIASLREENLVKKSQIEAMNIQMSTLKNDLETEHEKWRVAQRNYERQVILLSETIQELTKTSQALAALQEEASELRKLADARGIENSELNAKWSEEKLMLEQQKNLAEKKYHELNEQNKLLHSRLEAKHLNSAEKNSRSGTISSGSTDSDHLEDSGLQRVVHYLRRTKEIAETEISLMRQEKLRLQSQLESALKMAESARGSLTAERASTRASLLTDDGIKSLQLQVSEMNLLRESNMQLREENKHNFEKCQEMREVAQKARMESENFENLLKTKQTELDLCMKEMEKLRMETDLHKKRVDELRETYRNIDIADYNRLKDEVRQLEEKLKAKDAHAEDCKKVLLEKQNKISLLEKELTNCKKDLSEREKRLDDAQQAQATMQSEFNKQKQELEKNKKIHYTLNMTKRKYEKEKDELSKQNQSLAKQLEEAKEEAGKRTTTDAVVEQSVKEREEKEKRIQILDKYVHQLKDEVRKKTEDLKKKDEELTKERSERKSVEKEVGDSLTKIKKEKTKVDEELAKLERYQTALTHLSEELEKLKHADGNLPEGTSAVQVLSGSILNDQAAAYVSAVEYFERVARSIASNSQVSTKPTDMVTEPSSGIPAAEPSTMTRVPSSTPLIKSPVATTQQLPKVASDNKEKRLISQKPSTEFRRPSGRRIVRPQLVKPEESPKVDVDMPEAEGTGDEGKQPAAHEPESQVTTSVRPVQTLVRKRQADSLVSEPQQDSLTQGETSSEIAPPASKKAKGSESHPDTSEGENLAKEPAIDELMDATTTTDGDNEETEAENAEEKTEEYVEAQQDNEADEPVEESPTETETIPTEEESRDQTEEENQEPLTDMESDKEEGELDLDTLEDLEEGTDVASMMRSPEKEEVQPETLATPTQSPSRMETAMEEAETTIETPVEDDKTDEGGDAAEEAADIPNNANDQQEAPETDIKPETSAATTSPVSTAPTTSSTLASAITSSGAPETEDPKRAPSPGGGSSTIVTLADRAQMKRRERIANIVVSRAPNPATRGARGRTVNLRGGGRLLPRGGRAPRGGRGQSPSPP

Consider 1 substance from PMC10442006.

What all share (assay): two-hybrid; NUA or ESD4 on the GAL4 AD (pGADT7), SnRK2s on the GAL4 BD (pGBKT7), co-transformed into S. cerevisiae AH109; growth on -Leu/-Trp/-His (with 3-AT) or -Leu/-Trp/-His/-Ade
Experiment [1] addresses T1, SnRK2.3 fused to the GAL4 BD (Arabidopsis thaliana) (UniProt Q39193).
T1 sequence: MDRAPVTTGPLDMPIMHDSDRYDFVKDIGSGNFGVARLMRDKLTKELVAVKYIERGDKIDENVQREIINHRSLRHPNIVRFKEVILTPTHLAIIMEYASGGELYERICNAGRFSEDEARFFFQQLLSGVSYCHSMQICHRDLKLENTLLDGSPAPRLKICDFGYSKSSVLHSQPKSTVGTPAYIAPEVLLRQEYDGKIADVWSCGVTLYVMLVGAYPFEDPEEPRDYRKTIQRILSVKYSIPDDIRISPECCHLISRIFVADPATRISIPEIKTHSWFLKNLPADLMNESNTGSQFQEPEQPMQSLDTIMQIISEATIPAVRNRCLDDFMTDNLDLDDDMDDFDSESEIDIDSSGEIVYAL

The target in experiment [2] is T2, SnRK2.4 fused to the GAL4 BD (Arabidopsis thaliana) (UniProt P43291).
T2 sequence: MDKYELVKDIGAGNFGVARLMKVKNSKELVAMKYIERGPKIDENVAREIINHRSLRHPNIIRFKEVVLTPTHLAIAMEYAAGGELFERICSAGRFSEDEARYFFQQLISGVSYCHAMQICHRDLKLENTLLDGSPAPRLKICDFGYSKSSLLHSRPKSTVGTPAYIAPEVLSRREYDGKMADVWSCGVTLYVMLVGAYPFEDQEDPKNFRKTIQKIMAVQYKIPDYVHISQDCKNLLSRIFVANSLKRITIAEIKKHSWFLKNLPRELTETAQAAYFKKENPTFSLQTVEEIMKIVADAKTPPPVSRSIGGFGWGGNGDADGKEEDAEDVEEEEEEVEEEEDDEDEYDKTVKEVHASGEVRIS

The target in experiment [3] is T3, SnRK2.5 fused to the GAL4 BD (Arabidopsis thaliana) (UniProt Q9FFP9).
T3 sequence: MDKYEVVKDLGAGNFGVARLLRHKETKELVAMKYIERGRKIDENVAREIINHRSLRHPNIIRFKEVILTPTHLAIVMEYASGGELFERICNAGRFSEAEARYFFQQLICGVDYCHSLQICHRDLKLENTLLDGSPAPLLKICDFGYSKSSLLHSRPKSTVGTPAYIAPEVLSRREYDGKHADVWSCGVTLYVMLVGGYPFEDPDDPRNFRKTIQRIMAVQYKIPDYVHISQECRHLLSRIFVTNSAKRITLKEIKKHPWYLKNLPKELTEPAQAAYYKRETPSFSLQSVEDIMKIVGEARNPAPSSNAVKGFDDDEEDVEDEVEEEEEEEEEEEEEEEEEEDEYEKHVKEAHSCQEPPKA

For experiment [4], the target named is T4, SnRK2.7 fused to the GAL4 BD (Arabidopsis thaliana) (UniProt Q9SMQ4).
T4 sequence: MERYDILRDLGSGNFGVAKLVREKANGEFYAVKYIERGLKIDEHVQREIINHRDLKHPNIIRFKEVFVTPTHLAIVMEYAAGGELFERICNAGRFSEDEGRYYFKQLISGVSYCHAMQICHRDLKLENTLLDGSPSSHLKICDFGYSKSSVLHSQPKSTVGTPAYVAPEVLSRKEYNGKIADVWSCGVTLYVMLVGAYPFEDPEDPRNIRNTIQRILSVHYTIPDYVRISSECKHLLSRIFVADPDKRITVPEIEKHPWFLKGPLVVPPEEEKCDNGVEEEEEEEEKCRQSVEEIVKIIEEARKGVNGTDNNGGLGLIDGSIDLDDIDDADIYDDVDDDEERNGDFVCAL

In experiment [5] the target is T5, SnRK2.8 fused to the GAL4 BD (Arabidopsis thaliana) (UniProt Q9M9E9).
T5 sequence: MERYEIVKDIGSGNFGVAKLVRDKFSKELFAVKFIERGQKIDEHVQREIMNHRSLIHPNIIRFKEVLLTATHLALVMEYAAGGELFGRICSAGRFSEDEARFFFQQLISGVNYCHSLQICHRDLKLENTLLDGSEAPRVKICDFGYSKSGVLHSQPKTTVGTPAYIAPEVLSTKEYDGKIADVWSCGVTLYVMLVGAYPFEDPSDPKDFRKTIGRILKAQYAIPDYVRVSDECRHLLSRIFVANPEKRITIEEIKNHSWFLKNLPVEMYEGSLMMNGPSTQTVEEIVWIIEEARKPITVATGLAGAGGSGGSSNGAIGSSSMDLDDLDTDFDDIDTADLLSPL

Experiment [6] concerns the target T6, SnRK2.9 fused to the GAL4 BD (Arabidopsis thaliana) (UniProt O64812).
T6 sequence: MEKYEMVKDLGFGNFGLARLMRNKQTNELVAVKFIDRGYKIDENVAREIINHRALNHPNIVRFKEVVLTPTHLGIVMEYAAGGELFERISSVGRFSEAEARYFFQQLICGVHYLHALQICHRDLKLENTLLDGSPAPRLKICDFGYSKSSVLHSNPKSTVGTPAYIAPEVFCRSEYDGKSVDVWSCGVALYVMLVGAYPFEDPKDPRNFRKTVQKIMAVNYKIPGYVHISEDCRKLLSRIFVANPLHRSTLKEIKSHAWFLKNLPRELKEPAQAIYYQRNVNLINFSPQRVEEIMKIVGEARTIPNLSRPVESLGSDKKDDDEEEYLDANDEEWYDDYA

“NUCLEAR PORE ANCHOR (NUA) fused to the GAL4 AD (from UniProt A4GSN8 1-2093)”: the binding result in experiment [1] is reported as “binds”; in experiment [2], “no binding”; in experiment [3] it was “no binding”; in experiment [4], “no binding”; in experiment [5], “no binding”; in experiment [6] it was “no binding”.
